Assay results as given in PubChem BioAssay AID1963826 (Molecular Pharmacology Branch, DTP, NCI, 2024).
Certain results were filed several times, with different values. The list is limited to them. There may be further records. Values given together are repeats in other runs, samples, wells, individuals or studies. Brackets with × stand for listed records that agree.

System: 926638-142-R-J1-PDC complex spheroid viability
Experiment: Anticancer human tumor 926638-142-R-J1-PDC patient-derived endometrial carcinoma cell line growth inhibition [POLQ]
Conditions: stronger effect = lower value
Method: Multicellular complex tumor spheroid response to Polymerase (POL) inhibitors (novobiocin, ART-558, RP6685) in combination with a variety of drugs and investigational agents in selected tumor cell lines
The POL inhibitors (novobiocin, ART-558, and RP6685) were evaluated both individually and in combination with standard of care and investigational anticancer small molecules within a complex spheroid model of solid tumors. . Complex spheroids include a stromal component modeled by human endothelial cells (HUVEC) and fibroblasts modeled by human mesenchymal stem cells (MSCs). The concentration ranges selected for each drug and investigational agent were based upon clinically achievable concentrations if the clinical Cmax of the agent was known.
Compounds. The drugs and investigational agents: novobiocin (NSC847541), ART-558 (NSC835418), RP-6685 (NSC848927), peposertib (NSC802822), ceralasertib (NSC780249), elimusertib (NSC800525), camonsertib (NSC841442), AZD-1390 (NSC803789), olaparib (NSC753686), talazoparib (NSC767125), rucaparib (NSC756644), sotorasib (NSC818433), MRTX-1133 (NSC836407), SN-38 (NSC673596), topotecan (NSC609699), epotoside (NSC141540), doxorubicin (NSC123127), gemcitabine (NSC613327), 5-fluorouracil (NSC19893), paclitaxel (NSC125973), vemurafenib (NSC761431), MSA-2 (NSC828583), SN-011 (NSC837082), adavosertib (NSC754352), prexasertib (NSC758257), carboplatin (NSC241240) and oxaliplatin (NSC266046), were obtained from the National Cancer Institute (NCI) Developmental Therapeutics Program Chemical Repository (21). The FDA-approved anticancer drug set is available from the Developmental Therapeutics Program at https://dtp.cancer.gov/organization/dscb/obtaining/. […] The stock solutions were prepared in dimethyl sulfoxide (DMSO, Sigma-Aldrich, St. Louis, MO, cat. D2650), except for the platinum compounds which were prepared in saline (Quality Biological, Gaithersburg, MD, cat. 114-055-101), at 800-fold the tested concentration and stored at -70 degrees C prior to their use. All drugs and investigational agents were tested over a range starting from a high concentration at or near the clinical Cmax and decreasing in half-log increments. If the clinical Cmax for an agent had not been determined, the highest concentration tested was 10 microM, except for SN-38, which was tested at a high concentration of 1 microM.
Cell Culture. All cells were maintained in an incubator at 37 degrees C and 5% CO2 with 95% humidity. The PDC lines were cultured according to standard operating procedures established by the NCI PDMR (https://pdmr.cancer.gov). Table 3 of the manuscript, lists the cell lines along with the number of the three cell types plated to form the mct-spheroids and media for tumor cell growth. After thawing, all PDC lines, except 997537-175-T-J1-PDC and 415267-285-R-J2-PDC, were cultured in Matrigel-coated flasks prepared with a working solution of 1X Ham's F-12 nutrient mix, without supplementation (Thermo Fisher Scientific, cat. 11765054), 100 U/mL penicillin-streptomycin (Thermo Fisher Scientific, cat. 15140122), and 2.5% Matrigel (Corning Inc., Corning, NY, cat. 354248) for the first three passages. The two PDC lines 997537-175-T-J1-PDC and 415267-285-R-J2-PDC were cultured on uncoated flasks. The 857933-349-R-J2-PDC line was cultured in 6C/Colon 1B media containing advanced DMEM/F-12 (Thermo Fisher Scientific, cat. 12634028), 10 mM HEPES (Thermo Fisher Scientific, cat. 15630080), 1X GlutaMAX supplement (Thermo Fisher Scientific, cat. 35050061), 0.1 mg/mL primocin (InvivoGen, San Diego, CA, cat. ant-pm-2), 10% defined fetal bovine serum, heat inactivated (HyClone Laboratories Inc., Logan, UT, cat. SH30070.03HI), 50% L-WRN conditioned media (ATCC, cat. CRL-3276), 1.25 mM N-Acetyl-L-cysteine (Sigma-Aldrich, cat. A9165), 10 mM nicotinamide (Sigma-Aldrich, cat. N0636), 1X B-27 supplement (Thermo Fisher Scientific, cat. 17504044), 1X N-2 supplement (Thermo Fisher Scientific, cat. […]
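Further: spheroids exposed to drugs for one week before readout; percent viability relative to DMSO vehicle control wells set as 100%.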

SMILES | viability, T/C (compound alone 0.0316 µM) | viability, T/C (compound alone 0.1 µM) | viability, T/C (compound alone 1 µM) | viability, T/C (compound alone 3.16 µM) | viability, T/C (compound alone 10 µM) | viability, T/C (compound alone 0.316 µM)
COC1C(OC(N)=O)C(O)C(Oc2ccc3c(O)c(NC(=O)c4ccc(O)c(CC=C(C)C)c4)c(=O)oc3c2C)OC1(C)C (stereo not given) | 105, 103 (2×), 98.8, 93.1, 91, 97.8, 107, 96.1, 81.1, 101, 93, 112% | 90.6, 106 (2×), 98.9 (2×), 94.6, 83.7, 98.2, 96.2, 120, 102, 91.3, 101% | 106, 114, 113, 92.8, 92.3, 110 (2×), 98.3, 79.8, 100, 105, 117, 93.6% | 109 (2×), 102 (2×), 95.1, 85.6, 93.4, 95.8, 115, 93, 98.6, 100, 106% | – | –
Cc1cccc(N(C)C(=O)C2C(O)CCN2c2nc(C)cc(C(F)(F)F)c2C#N)c1 (stereo not given) | 92, 107 (2×), 94.7, 77.1, 96.8, 85.7, 96.2, 94.6, 103, 100, 98.7, 91.7% | – | 90.5, 92.5, 85.2, 91, 79.9, 110, 102, 88.6, 95.5 (2×), 94.3, 106, 99.6% | 95.8, 103, 102, 101 (3×), 65.7, 113, 92.9 (2×), 90.7, 117, 91.3% | 91.5, 95.6, 82, 90.7, 74.5, 92.9, 108, 106, 99.3, 85, 104, 95.5, 98.3% | –
Nc1ccc(C#CCN(C(=O)Cc2ncc(C(F)(F)F)cc2C(F)(F)F)c2ccc(F)cc2)nn1 | – | – | – | 116, 109, 117, 101, 86.1, 115, 102, 96.9, 86, 103, 118, 87, 106% | – | 108, 83.3, 103 (2×), 95.1, 104, 99.9, 101, 97, 102, 107, 111, 96.2%
